Data as given in PubChem BioAssay AID686978 (National Center for Advancing Translational Sciences (NCATS), 2013).
“And” between values parts separate entries of the source, which are not always exact repeats. Identical values can stand only once. Among all 420,000 compounds or so, about 64,000 (15%) were called active. The shares of active, inactive and inconclusive entries below differ from those in the screen. Calls come from the whole dose curve; as a rule, active = well fitted inhibition curve with a large enough effect; inconclusive = small, poorly fitted or top-dose-only effect; inactive = flat fitted curve, though single readings scatter. A potency beside an inconclusive call is a rough fit, not a confirmed value.

assay: qHTS for Inhibitors of human tyrosyl-DNA phosphodiesterase 1 (TDP1): qHTS in cells in absence of CPT; details: DT40 Tdp1-/- hTDP1 cells, no CPT, ATP luminescence, 48 h; activity change, negative = growth inhibition: at 46.2 µM (top of the series); note: nearly all actives have a fitted effect of over 55% in size
Procedure, shortened: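 A cellular qHTS used chicken DT40 cells lacking endogenous Tdp1 but carrying stably transfected human TDP1. Compounds were applied without camptothecin, and cell growth kinetics were judged by ATP-dependent luminescence after ≥48 hr.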
% is set by controls: 0 for no effect and ±100 for the full control effect; potency is the fitted concentration of half-maximal effect; tags give direction and shape of the fitted curve.

SMILES | activity change, negative = growth inhibition | Potency
Cn1c(CCNS(=O)(=O)c2ccccc2)nc2cc([N+](=O)[O-])ccc21 | inactive: -12.5% | 
Cn1c(=O)c2c(SCC(=O)Nc3ccccc3C(F)(F)F)nc(C3CCCC3)nc2n(C)c1=O |  | inconclusive: 11.6 µM [inhibitor, partial curve, poor fit]
COc1ccc(CNCCCSc2ncccn2)c(OC)c1 |  | inconclusive: 23.1 µM [inhibitor, single point]
Cc1ccc(Cl)cc1NC(=O)Nc1nnc(N(C)Cc2ccccc2)s1 |  | active: 23.1 µM
COc1ccc(-c2cc(C)no2)cc1S(=O)(=O)N1CCc2ccccc21 |  | inconclusive: 18.4 µM [inhibitor, single point]
CN(Cc1cccnc1)C(=O)c1cc(S(=O)(=O)Nc2ccccc2F)ccc1Cl | inactive: -22.9% | 
NC1=NC(=O)/C(=C/c2cn(Cc3ccccc3)c3ccccc23)S1 |  | inconclusive: 29.1 µM [inhibitor, single point]
CCc1ccc(NC(=O)CN(c2ccc(C)cc2)S(=O)(=O)c2cccs2)cc1 | inactive: -18.8% | 
CCN(CC1COc2ccccc2O1)S(=O)(=O)c1ccc(C)cc1 (stereo not drawn) |  | inconclusive: 29.1 µM [inhibitor, single point]
CCCNC(=O)C[C@@H]1C[C@@H]2c3cc(NS(=O)(=O)c4ccc(OC)cc4)ccc3O[C@@H]2[C@@H](CO)O1 |  | inconclusive: 0.731 µM [inhibitor, full curve]
Cc1ccccc1C(=O)NCC(c1ccco1)N1CCc2ccccc21 (stereo not drawn) |  | inconclusive: 29.1 µM [inhibitor, single point]
COc1ccccc1CNC(=O)C(=O)NCC1OCCN1S(=O)(=O)c1ccc(Br)cc1 (stereo not drawn) |  | inconclusive: 29.1 µM [inhibitor, single point]
C/C(=N\NC(=O)CC1N=C(Cc2ccccc2)NNC1=O)c1ccc(Br)cc1 (stereo not drawn) |  | inconclusive: 23.1 µM [inhibitor, single point]
CC(=O)N/C(=C/c1ccccc1)c1ccncc1 |  | active: 11.2 µM
COc1ccc(C(=O)NCC(=O)OCCOc2ccc(Cl)cc2)cc1OC | inactive: -12.8% | 
Cc1nn(C)c(C(=O)NNC(=S)NC2CCCCC2)c1Cl |  | inconclusive: 18.4 µM [inhibitor, single point]
Cc1ccccc1NC(=O)Cc1nc(COC(=O)c2ncc(Cl)c(Cl)c2Cl)cs1 |  | inconclusive: 20.6 µM [inhibitor, single point]
Oc1ccc(-c2cn3ccccc3n2)cc1O |  | active: 13 µM
CC1=Nc2cc(C(=O)NCCCOC(C)C)ccc2Sc2ccccc21 |  | active: 20.6 µM
O=C(NCc1nc2ccccc2[nH]1)C1=C[C@@H](c2ccc(Br)cc2)C[C@@H](OCCCCO)O1 |  | inconclusive: 29.1 µM [inhibitor, single point]
Cc1ccc(CN(C(=O)c2ccccc2)c2ccccn2)o1 |  | inconclusive: 18.4 µM [inhibitor, single point]
Cc1ccc(Nc2nc(N)nc(CN3CCN(Cc4ccc5c(c4)OCO5)CC3)n2)cc1Cl |  | inconclusive: 29.1 µM [inhibitor, single point]
CN(C)CCNC(=O)C12CC3(C)CC(C)(CC(C)(C3)C1)C2 |  | inconclusive: 29.1 µM [inhibitor, single point]

SMILES | activity change, negative = growth inhibition | Potency
CN(Cc1ccccc1)c1nccn2ccnc12 |  | inconclusive: 16.4 µM [inhibitor, single point]
Nc1ccc(S(=O)(=O)N2CCCC2)cc1Cl | inactive: -0.41% | 
COc1ccc(CNC(=S)NCc2ccc(OC(C)C)cc2)cc1 |  | inconclusive: 23.1 µM [inhibitor, single point]
Cc1ccc(OCC(=O)Nc2nnc(S(=O)(=O)N3c4ccccc4CC3C)s2)cc1 (stereo not drawn) | inactive: -44.9% | 
CC(C)CCSc1nc2ccccc2[nH]1 |  | inconclusive: 29.1 µM [inhibitor, single point]
COc1ccccc1NC(=S)NC12CN3CN(CN(C3)C1)C2 |  | inconclusive: 23.1 µM [inhibitor, single point]
CCOc1cc(C(=O)Nc2ccccc2F)cc(Br)c1OCC |  | inconclusive: 29.1 µM [inhibitor, single point]
Cc1ccc(C)c(C(=O)C[n+]2cccc(Br)c2)c1 |  | inconclusive: 22.4 µM [inhibitor, single point]
COc1ccc(-c2c(-c3ccc(OC)c(C)c3O)n[nH]c2C)cc1 |  | inconclusive: 25.9 µM [inhibitor, single point]
CC(=O)c1cccc(NC(=O)c2nc(-c3ccccc3)n(-c3cccc(Cl)c3)n2)c1 |  | active: 13 µM
CCc1cc(C(=O)N2CCN(S(=O)(=O)c3cc(C)ccc3C)CC2)sc1C | inactive: -20.2% | 
CC(=O)Nc1ccc(NC(=O)C(C)OC(=O)c2ccccc2C(=O)c2ccc(Cl)c([N+](=O)[O-])c2)cc1 (stereo not drawn) |  | inconclusive: 29.1 µM [inhibitor, single point]
CCNc1nc(NC(C)C)nc(N(n2cnnc2)S(=O)(=O)c2ccc(C)cc2)n1 |  | inconclusive: 29.1 µM [inhibitor, single point]
CCOc1ccc(NS(=O)(=O)c2ccc3c(c2)n(C)c(=O)n3C)cc1 |  | inconclusive: 29.1 µM [inhibitor, single point]
CCNC(=S)Nc1ccc(Cl)cc1Cl | inactive: -11% | 
CCNC(=O)Nc1cc(S(=O)(=O)N2CCOCC2)ccc1N1CCCCC1 |  | inconclusive: 29.1 µM [inhibitor, single point]
CCn1c(SCC(=O)N(C)c2ccccc2)nc2c([nH]c3ccccc32)c1=O | inactive: -2.7% | 
CCn1c(=O)c2c(nc3n2CC(C)CN3CCc2ccccc2)n(C)c1=O (stereo not drawn) |  | inconclusive: 18.4 µM [inhibitor, single point]
CC(=O)NCCNc1nc(-c2ccc(C(=O)N(C)C)cc2)nc2ccccc12 | inactive: -28.7% | 
N=c1oc2ccccc2cc1C(=O)N/N=C/c1ccccc1 | inactive: -7.25% | 
C[N+]1(CC(=O)c2ccc(Oc3ccccc3)cc2)CCOCC1 |  | inconclusive: 20 µM [inhibitor, partial curve, poor fit]
CCN(CC)C(=O)CSC1=C(C#N)C(c2ccco2)C(C(=O)OCCOC)=C(C)N1 (stereo not drawn) |  | inconclusive: 29.1 µM [inhibitor, single point] and inconclusive: 16.4 µM [inhibitor, single point]
COc1cc(C(=O)OC(C)C(=O)NC2CCCCC2C)c([N+](=O)[O-])cc1OC (stereo not drawn) |  | inconclusive: 29.1 µM [inhibitor, single point]

SMILES | activity change, negative = growth inhibition | Potency
CCOc1ccccc1C(=O)NCC(=O)NCCSc1ccc(Br)cc1 |  | inconclusive: 18.4 µM [inhibitor, single point]
COc1cc(OC)cc(C(=O)Nc2ncc3c(n2)CC(C)(C)CC3=O)c1 | inactive: -8.15% | 
N#CC1=C2SCC(O)(c3ccccc3)N2C(=O)CC1c1ccccc1F (stereo not drawn) |  | active: 8.2 µM
Cc1ccc(S(=O)(=O)NCC(c2ccco2)S(=O)(=O)c2ccccc2)cc1 (stereo not drawn) |  | inconclusive: 29.1 µM [inhibitor, single point]
CCN(CC)S(=O)(=O)c1cccc(NC(=O)COC(=O)CCC(=O)c2ccc(F)cc2)c1 | inactive: -15% | 
CCN(CC)c1ccc(/C=N/NC(=O)C(O)c2ccccc2)cc1 (stereo not drawn) | inactive: -13.2% | 
O=c1oc2ccccc2cc1-c1cn(-c2ccccc2)c(=S)[nH]1 |  | active: 3.26 µM
Cc1ccccc1-c1ccc(=O)n(CC(=O)Nc2ccc(-n3cnnn3)cc2)n1 | inactive: 4.84% | 
Cc1nnc(N2CCC(C(=O)N3CCCCC3)CC2)c2nn(-c3ccc(Cl)cc3)c(C)c12 |  | inconclusive: 25.9 µM [inhibitor, single point] and inconclusive: 29.1 µM [inhibitor, single point]
O=C(CSc1nnc(-c2cc3ccccc3cc2O)n1Cc1ccco1)N1CCc2ccccc2C1 |  | inconclusive: 20.6 µM [inhibitor, single point]
CC(C)C(NC(=O)/C=C/c1cccc([N+](=O)[O-])c1)C(C)C |  | inconclusive: 8.2 µM [inhibitor, partial curve, poor fit]
Cc1onc(-c2c(Cl)cccc2Cl)c1C(=O)c1c[nH]c(C(=O)NCCCN2CCOCC2)c1 | inactive: -28.4% | 
O=C1CN(C(=O)c2cccc(Br)c2)c2ccccc2N1 |  | active: 11.6 µM
Cc1ccc(N(CC(=O)NCCSc2ccccn2)S(=O)(=O)c2ccc(F)cc2)cc1 |  | inconclusive: 29.1 µM [inhibitor, single point]
COc1ccc(OC)c(NC(=S)NCCSc2ccc(C)cc2)c1 |  | active: 16.4 µM
CCCC(=O)OC1CC(C)N(C(=O)c2ccccc2)c2ccc(C)cc21 (stereo not drawn) |  | active: 23.1 µM
CCC(c1nnnn1C(C)(C)CC)N(CCCO)Cc1cc2cc(C)cc(C)c2[nH]c1=O (stereo not drawn) |  | active: 20.6 µM
COc1cccc(CNC(=O)[C@@H]2CCCN2C(=O)[C@@H]2CCCN2S(=O)(=O)c2ccc(OC)c(C)c2)c1 |  | inconclusive: 29.1 µM [inhibitor, single point]
CCNc1ncc2nc(-c3cccs3)c(=O)n(CCc3ccccc3)c2n1 |  | inconclusive: 29.1 µM [inhibitor, single point]
CC(=O)c1cc(-c2ccccc2)n(CCC(=O)NCc2ccc(C)cc2)c1C |  | inconclusive: 18.4 µM [inhibitor, single point]
COc1cc(OC)cc(-c2c(C#Cc3ccsc3)c3cc(-c4ccc5cc[nH]c5c4)ccc3n2C)c1 |  | inconclusive: 11.6 µM [inhibitor, partial curve]
CCOc1ccc(CN2CCN(C(=O)c3cccc4ccccc34)CC2)cc1 |  | inconclusive: 29.1 µM [inhibitor, partial curve, poor fit]
